{
  "source": "patent US20260184778A1",
  "about": "(REGENECORE BIOTECH, published 2026)",
  "key": {"IL-4Rα": {"target": "IL-4Rα (human, UniProt P24394 26-232, limits assumed)", "experiment": "cell-based or functional assay"}, "IL-5": {"target": "IL-5 (human, UniProt P05113 20-134)", "experiment": "cell-based or functional assay"}},
  "data": [
    {"binder": "anti-IL-4Rα/IL-5 bispecific antibody 4E9V10-2B3V2-1 (bispecific antibody, human IgG4) QVQLVESGGGLVQPGGSLRLSCAASGDFYCMAWFRQAPGKEREAVAAIRSGGRSTYYADSVKGRFTISRDNSKNTLYLQMNSLKAEDTAVYYCAVGVDGNCRNYWGQGTLVTVSS[skipping human IgG4 Fc]ESKYGPPCPSCPQVQLVESGGGSVQAGGSLRLSCAASGNTFSFSTYCMGWFRQSPGKEREGSLATIYDASTAYAGSVKGRFTISRDNSKNILYLQMNNLRAEDTAVYYCAAARYCMFWSHPSYWGQGTQVTVSS", "values": [
      {"measurement": "EC50(nM), neutralizing IL-13-induced TF-1 proliferation", "setting": "IL-4Rα", "value": 0.215, "unit": "nM"},
      {"measurement": "EC50 (nM), neutralizing IL-5-induced TF-1 cell proliferation", "setting": "IL-5", "value": 0.175, "unit": "nM"}
    ]}
  ]
}
